# Measured values: PubChem BioAssay AID1347120 (National Center for Advancing Translational Sciences (NCATS), 2019)
# Out of some 390,000 compounds screened, about 930 (0.24%) were called active. Inconclusive results, whose numbers are uncertain, are shown with a selection of clear calls. Calls come from the whole dose curve; as a rule, active = well fitted activation curve with a large enough effect; inconclusive = small, poorly fitted or top-dose-only effect; inactive = no such curve, though single readings can be large or run the other way. Potencies beside an inconclusive call are fits to weak or partial responses and may not hold up.
# Experiment: qHTS for Suppressors of FUS Proteinopathy: Primary screen using FUS-linked yeast assay; note: nearly all actives have a fitted effect of over 55% in size;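 for growth rescue (activation): plate controls were DMSO vehicle for no effect and reference control for full effect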
# Settings: S. cerevisiae FUS-expressing, OD600, 24 h; Potency: growth rescue; growth rescue (activation): at 76.6 µM (top of the series)
# Outline: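 Absorbance at 600 nm, taken 24hr after compound addition, measured rescue of FUS-yeast growth at 30C. Induction used 2% galactose with seeding at OD 0.005. Controls: CP55940 from 92uM final, DMSO only.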
# Potency is the fitted concentration of half-maximal effect; tags give direction and shape of the fitted curve.
SMILES,Potency,growth rescue (activation)
COc1ccc(C=CC(=O)c2ccc3cc(OC)c(OC)cc3c2)cc1OC,"inconclusive: 28.2 µM [activator, single point]",–
CC12CCC(c3nnc(SCC(=O)Nc4cccc5ccccc45)nc31)C2(C)C (stereo not given),"inconclusive: 20 µM [activator, partial curve, poor fit]",–
COc1ccc(C)cc1S(=O)(=O)N1c2ccccc2CC1C (stereo not given),"inconclusive: 1 µM [activator, full curve, poor fit]",–
COc1cc(/C=C2\C(=O)ON=C2c2ccc(Cl)cc2)ccc1O,"inconclusive: 35.5 µM [activator, single point]",–
c1ccc(-c2nc(-c3ccccn3)no2)cc1,inactive,–
CCOc1ccccc1N1CCN(C(=O)c2ccc3[nH]c4c(c3c2)CCCC4)CC1,"inconclusive: 35.5 µM [activator, single point]",–
Cn1cc(-c2cc3n(n2)CCC(=O)N3CCCC(=O)Nc2ccccc2F)c2ccccc21,"inconclusive: 28.2 µM [activator, partial curve, poor fit]",–
CCC(C)c1ccc(S(=O)(=O)N2CCN(C(=O)c3ccc(Cl)c(S(=O)(=O)N4CCOCC4)c3)CC2)cc1 (stereo not given),"inconclusive: 28.2 µM [activator, single point]",–
C=CCOC(=O)C1=C(C)N=C2SCCC(=O)N2C1/C=C/c1ccccc1OC (stereo not given),"inconclusive: 25.1 µM [activator, single point]",–
CCC(=O)N(Cc1ccco1)c1nc(C(=O)Nc2ccc(Cl)cc2)c(C)s1,"inconclusive: 25.1 µM [activator, single point]",–
CCCCCCSc1ccc(-c2nc3ccccn3c2NCCCC)cc1,"inconclusive: 35.5 µM [activator, single point]",–
O=C(NC1CCCCC1)c1ccc2c(c1)N(Cc1cccc(Cl)c1)C(=O)c1ccccc1S2=O (stereo not given),inactive,–
COc1ccc(-c2nc3c4ccccc4ccn3c2Cc2ccccc2C(F)(F)F)cc1OC,"inconclusive: 20 µM [activator, partial curve]",–
CCOC(=O)C1CCN(C(c2cc3c(C)ccc(C)c3[nH]c2=O)c2nnnn2C2CCCCC2)CC1 (stereo not given),inactive,–
COc1cc(C(=O)NC2(C(F)(F)F)NC(=O)N(CCCc3ccccc3)C2=O)cc(OC)c1OC (stereo not given),"inconclusive: 22.4 µM [activator, partial curve, poor fit]",–
Cc1ccc(C(=O)O)cc1NC(=S)NC(=O)c1ccc(-c2ccc(Cl)cc2)o1,inactive,–
COc1cc2oc(=O)ccc2cc1-c1c(OC)ccc2ccc(=O)oc12,inactive,–
COc1cccc(C(=O)OCn2nnc3ccccc3c2=O)c1OC,inactive,–
Cc1ccc(NC(=O)C2CCCN(c3ncnc4onc(C)c34)C2)cc1Cl (stereo not given),inactive,–
CC(C)CN1C=C2C(=O)C(C)(OC(=O)CCc3ccccc3)C(=O)C=C2C=C1c1ccc(C#N)cc1 (stereo not given),"inconclusive: 50.1 µM [activator, single point]",–
O=c1[nH][nH]c2c1[C@H](C1CCCC1)O[C@H](CCc1ccccc1)C2,"inconclusive: 10 µM [activator, full curve]",–
Cn1nccc1-c1ccc(C(=O)Nc2cccc(NS(C)(=O)=O)c2)c2occc12,"inconclusive: 35.5 µM [activator, single point]",–

SMILES,Potency,growth rescue (activation)
CCn1c(-c2ccc([N+](=O)[O-])cc2)n[nH]c1=S,–,inconclusive: 51.9% [activator]
Cc1cc(Nc2ccccc2)n(-c2ccc(Br)cc2)n1,inactive,–
COc1cc(OC)c(NC(=O)C(C)n2nc(-c3ccc(C)cc3)c3c(c2=O)CCCC3)cc1Cl (stereo not given),"inconclusive: 25.1 µM [activator, single point]",–
O=C1NC[C@H](c2ccccc2)OC(=O)[C@H](Cc2ccc(F)cc2)C/C=C\C[C@@H]1CC(=O)N(CCO)Cc1ccccc1,"inconclusive: 28.2 µM [activator, single point]",–
Cc1ccccc1N1C(=O)C(Cl)=C(N2CCN(c3ccccc3)CC2)C1=O,"inconclusive: 31.6 µM [activator, single point]",–
COc1ccccc1-c1cc(C(=O)N/N=C/c2ccc(C)s2)c2ccccc2n1,"inconclusive: 14.1 µM [activator, partial curve, poor fit]",–
CCOC(=O)CC(NC(=O)CCc1c(C)nc2cc(-c3ccccc3)nn2c1C)c1ccc(C)cc1 (stereo not given),"inconclusive: 35.5 µM [activator, single point]",–
COc1ccc(Cn2c(SCc3ccc(C(=O)NCc4cccs4)cc3)nc3ccncc32)cc1,"inconclusive: 25.1 µM [activator, partial curve, poor fit]",–
O=c1ccc(-c2ccccc2)nn1Cc1ccccc1,inactive,–
O=C(CSc1nc2ccccc2c(=O)n1-c1ccccc1)NCc1ccc2c(c1)OCO2,inactive,–
Cc1ccc(C)c(NC(=O)Cn2c(=O)n(CC(=O)NCCc3ccccc3)c(=O)c3ccccc32)c1,inactive,–
Oc1ccc(C[C@H]2CNC(=S)N2CC2CCCN2C[C@H](Cc2ccccc2)N2C[C@H](Cc3ccc(O)cc3)N(CC3CCCCCC3)C2=S)cc1 (stereo not given in full),"inconclusive: 20 µM [activator, partial curve, poor fit]",–
O=[N+]([O-])c1ccc(NNS(=O)(=O)c2cc(Cl)ccc2Cl)nc1,"inconclusive: 12.6 µM [activator, partial curve, poor fit]",–
c1ccn2cc(CSC3=NCCS3)nc2c1,"inconclusive: 11.2 µM [activator, single point]",–
Cc1ccc(S(=O)(=O)N(CC(=O)NCCC2=CCCCC2)Cc2ccccc2F)cc1,"inconclusive: 15.8 µM [activator, partial curve]",–
OC(c1ccccc1)c1nc(-c2ccccc2)cs1 (stereo not given),inactive,–
NNc1nc(-c2ccccc2Cl)c2cc(Br)ccc2n1,inactive,–
COc1ccc(NC(=O)c2cc(-c3cc(F)ccc3OCC3CCCO3)n[nH]2)c(C)c1 (stereo not given),"inconclusive: 22.4 µM [activator, partial curve]",–
COc1ccc(C2(c3ccc(OC)cc3)NC(=O)N(CC(=O)Nc3ccc(OC)c(OC)c3)C2=O)cc1,"inconclusive: 50.1 µM [activator, single point]",–
CCCCn1c(N)c(N(CCC(C)C)C(=O)C2=NN(c3cc(C)ccc3C)C(=O)CC2)c(=O)[nH]c1=O,"inconclusive: 25.1 µM [activator, single point]",–
CC1=C(C(=O)OCC(C)C)C(c2cccc(F)c2)N2C(=O)C(C)SC2=N1 (stereo not given),"inconclusive: 50.1 µM [activator, single point]",–
COc1ccc(OC)c(S(=O)(=O)NCc2ccc3c(c2)CCN3C(=O)c2cccc(C)c2)c1,"inconclusive: 15.8 µM [activator, partial curve, poor fit]",–

SMILES,Potency,growth rescue (activation)
CCC(=O)N1Cc2cc(C(=O)Nc3nccs3)nc(-c3cccc(-c4ccccc4OC)c3)c2[C@H]1CCO,"inconclusive: 50.1 µM [activator, single point]",–
Cc1ccc(CSCCNC(=O)CN(c2cccc(C)c2C)S(=O)(=O)c2ccccc2)cc1,"inconclusive: 5.01 µM [activator, full curve, poor fit]",–
COc1ccc(OC)c(Nc2nc(-c3sc(N)nc3C)cs2)c1,"inconclusive: 7.94 µM [activator, partial curve, poor fit]",–
O=C(CC1N=C2c3ccccc3N=C(SCC(=O)Nc3ccccc3F)N2C1=O)NCc1ccc2c(c1)OCO2 (stereo not given),"inconclusive: 31.6 µM [activator, single point]",–
CC(C)COc1ccc(C(=O)N2CCC(c3nc4ccccc4s3)CC2)cc1,"inconclusive: 25.1 µM [activator, single point]",–
Cc1cc(O)c(-c2n[nH]c3c2C(c2cccc(O)c2)N(Cc2cccnc2)C3=O)cc1Cl (stereo not given),"inconclusive: 28.2 µM [activator, partial curve, poor fit]",–
CCOC(=O)CC(NS(=O)(=O)c1cc(-c2cc(C)no2)ccc1C)c1ccc(C)cc1 (stereo not given),"inconclusive: 28.2 µM [activator, single point]",–
S=C(NCCSCc1ccc(Cl)cc1Cl)Nc1ccccc1,inactive,–
COc1ccc(NC(=O)CSc2nc3ccccc3c(=O)n2CCNC(C)=O)cc1,"inconclusive: 39.8 µM [activator, partial curve, poor fit]",–
CCOc1ccc(C(=O)Nc2ccc3nc4c(c(Nc5ccccc5OC)c3c2)CCCC4)cc1,inactive,–
CC(=O)c1ccc(-c2cccc(-c3nc4ccccn4c3NC3CCCCC3)c2)cc1,"inconclusive: 22.4 µM [activator, partial curve]",–
CC(C)(O)C#Cc1ccc(CN2CCN(C3CCCCC3)C(CCO)C2)cc1 (stereo not given),inactive,–
O=C1Cc2cc(S(=O)(=O)N3CCCCC3)cc3c2N1CCC3,"inconclusive: 20 µM [activator, single point]",–
Cn1nc(C(C)(C)C)cc1C(=O)N1CCCCC1c1cc(C(=O)Nc2cccc3c2CCCC3)no1 (stereo not given),active: 31.6 µM,–
CCC(C(=O)NCc1ccc2c(c1)CCN2C(=O)c1ccc(F)cc1)c1ccccc1 (stereo not given),inactive,–
O=C(N/N=C/c1ccc([N+](=O)[O-])s1)c1ccccc1Br,inactive,–
COC(=O)c1cc(Cc2ccc(N)c(C(=O)OC)c2)ccc1N,inactive,–
CCC(CO)n1c(SCc2cc(=O)oc3cc(C)ccc23)nc2ccccc2c1=O (stereo not given),"inconclusive: 50.1 µM [activator, single point]",–
CCc1ccc(Nc2cc(C)nc3ncnn23)cc1,inactive,–
CC1(C)CCC[C@@]2(C)CC=C(C(=O)O)[C@@H]3C[C@]312,inactive,–
CCc1nc2ccc(C(=O)NCCc3ccc(OC)cc3OC)cc2nc1CC,"inconclusive: 25.1 µM [activator, partial curve, poor fit]",–
